Laboratory results: the RNAGym collection of RNA variant scans (doi:10.1101/gad.245936.114)
Variants at the background level are over-represented here.

B1: tRNA (parent)
chain: CUCUCGGUAGCCAAGUUGGUUUAAGGCGCAAGACUUUAAUUUAUCACUACGAAAUCUUGAGAUCGGGCGUUCGACUCGCCCCCGGGAGAUUUUUUCCUCGAGCAA

Variants of: B1
Assay: nonsense suppression (GFP-seq) (ratio to wild type); higher = more function; SUP4oc tRNA, yeast GFP reporter sort-seq
How it was run: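 To measure nonsense suppression, tRNA variants from a library carrying ~3% random mutations were integrated into the yeast genome alongside RFP and a GFP ochre reporter under galactose control. Growth took place in raffinose/galactose medium supplemented with 80 mg/L adenine, followed by sorting into GFP/RFP bins and Illumina sequencing of each bin (phred ≥30). For each variant with ≥100 reads and ≥30 cells, the bin median GFP/RFP values were weighted by its estimated cell share per bin and referenced to the unmutated parent tRNA.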

Row | Variant | nonsense suppression
1 | U20G A54G G78C | ≤ 0.026
2 | U20G A62U | ≤ 0.026
3 | U20G C27G | ≤ 0.026
4 | U20G C27U C29A G32U U63C | ≤ 0.026
5 | U20G C29U | 1.12
6 | U20G C29U U57A C68G | ≤ 0.026
7 | U20G C34A | ≤ 0.026
8 | U20G C56A | ≤ 0.026
9 | U20G C56G | ≤ 0.026
10 | U20G C64U C81A | ≤ 0.026
11 | U20G C64U G84A | ≤ 0.026
12 | U20G C68A C72G C82A | ≤ 0.026
13 | U20G C77G | ≤ 0.026
14 | U20G C80U | 0.202
15 | U20G C81G | ≤ 0.026
16 | U20G C82U | 0.838
17 | U20G G25A G61U | ≤ 0.026
18 | U20G G25C | ≤ 0.026
19 | U20G G25C G85A | ≤ 0.026
20 | U20G G25U G61A C79G | ≤ 0.026
21 | U20G G26U G85U | ≤ 0.026
22 | U20G G32C C68U | ≤ 0.026
23 | U20G G32U U70A | ≤ 0.026
24 | U20G G59C C64A G85U | ≤ 0.026

Row | Variant | nonsense suppression
25 | U20G G59U G78C | ≤ 0.026
26 | U20G G59U G88A | ≤ 0.026
27 | U20G G61C | 0.615
28 | U20G G61U | 0.874
29 | U20G G65A U76G A87U | ≤ 0.026
30 | U20G G65C C80A | ≤ 0.026
31 | U20G G65C G73C | ≤ 0.026
32 | U20G G67A | 0.0529
33 | U20G G73U | ≤ 0.026
34 | U20G G78A C79U | ≤ 0.026
35 | U20G G85C G88A | ≤ 0.026
36 | U20G G88U | ≤ 0.026
37 | U20G U21C | 0.761
38 | U20G U21C C56A G59U G85C | ≤ 0.026
39 | U20G U21C C64A C68G | ≤ 0.026
40 | U20G U21C G26C C56U C68A | ≤ 0.026
41 | U20G U21G A30U | ≤ 0.026
42 | U20G U55C A74G | ≤ 0.026
43 | U20G U55C C56G U63A G66A | ≤ 0.026
44 | U20G U58G A62C | ≤ 0.026
45 | U21A A23G G32U G61A G84C | ≤ 0.026
46 | U21A A24C C29G A33C C34U G67C | ≤ 0.026
47 | U21A A24C U70G U76A G85A | ≤ 0.026
48 | U21A A24G A62C G65A G88C | ≤ 0.026

Row | Variant | nonsense suppression
49 | U21A A24U | 0.184
50 | U21A A30C C34G | ≤ 0.026
51 | U21A A30C G65A | ≤ 0.026
52 | U21A A33C A74G | ≤ 0.026
53 | U21A A54C G61A | 0.215
54 | U21A A54U | 0.737
55 | U21A A54U G78U | ≤ 0.026
56 | U21A A54U U76C | 0.751
57 | U21A A62G C81G | ≤ 0.026
58 | U21A A89G | ≤ 0.026
59 | U21A C27A A31G | ≤ 0.026
60 | U21A C27G | ≤ 0.026
61 | U21A C29A C79U | ≤ 0.026
62 | U21A C79G | ≤ 0.026
63 | U21A C79U | 0.444
64 | U21A C81G | ≤ 0.026
65 | U21A G25U C27A G67C G73C | ≤ 0.026
66 | U21A G26C C34A A89C | ≤ 0.026
67 | U21A G26C C64A | ≤ 0.026
68 | U21A G26C U58G | ≤ 0.026
69 | U21A G32U U71G G85C | ≤ 0.026
70 | U21A G59A U76C | ≤ 0.026
71 | U21A G65A | ≤ 0.026
72 | U21A G65A G67C | ≤ 0.026

Row | Variant | nonsense suppression
73 | U21A G65C U71A G78U | ≤ 0.026
74 | U21A G66A | ≤ 0.026
75 | U21A G69C | ≤ 0.026
76 | U21A G73C | ≤ 0.026
77 | U21A G85A | 1.06
78 | U21A U22A A23C G28U A60G G88U | ≤ 0.026
79 | U21A U22G A24U C68G U76A C81A | ≤ 0.026
80 | U21A U22G U76A C77A G88A | ≤ 0.026
81 | U21A U55C C79U | ≤ 0.026
82 | U21A U55G U57C G86A | ≤ 0.026
83 | U21A U70G | ≤ 0.026
84 | U21C A23G | ≤ 0.026
85 | U21C A24C G28U A87G | ≤ 0.026
86 | U21C A24U U63A G88U | ≤ 0.026
87 | U21C A31U G59C A60U U63G C80G | ≤ 0.026
88 | U21C A33G U57G U70G | ≤ 0.026
89 | U21C A54C U63G C82G | ≤ 0.026
90 | U21C A54C U63G C82U | ≤ 0.026
91 | U21C A54U U57C G59A A89G | ≤ 0.026
92 | U21C A60U C68U | 1.05
93 | U21C A62C | ≤ 0.026
94 | U21C A62C G66U G67A G86A | ≤ 0.026
95 | U21C A62G | 0.0282
96 | U21C C29A A87U | ≤ 0.026

Row | Variant | nonsense suppression
97 | U21C C29G U35C C56A | ≤ 0.026
98 | U21C C72G A89U | ≤ 0.026
99 | U21C C80A | ≤ 0.026
100 | U21C C81G | ≤ 0.026
101 | U21C C81U | 1.14
102 | U21C G25C C34A U70C A74G | ≤ 0.026
103 | U21C G26U G67A C80G | ≤ 0.026
104 | U21C G28U A31U A33G G78U C79A | ≤ 0.026
105 | U21C G32U A60U | ≤ 0.026
106 | U21C G59U | ≤ 0.026
107 | U21C G66U | ≤ 0.026
108 | U21C G67A | 0.0282
109 | U21C G69A G84U | ≤ 0.026
110 | U21C G73C | ≤ 0.026
111 | U21C G78U | 0.442
112 | U21C U22C G26U | ≤ 0.026
113 | U21C U35A C64A | ≤ 0.026
114 | U21C U55G | ≤ 0.026
115 | U21C U57C C80U G85A | ≤ 0.026
116 | U21C U57G G67C C77A | ≤ 0.026
117 | U21C U63G | 0.805
118 | U21C U70A | ≤ 0.026
119 | U21C U70G | ≤ 0.026
120 | U21C U71A C80A G84A | ≤ 0.026

Row | Variant | nonsense suppression
121 | U21C U76C | 1.06
122 | U21G A23C A24U G61A G85C | ≤ 0.026
123 | U21G A23G | ≤ 0.026
124 | U21G A24G C27U G78U | ≤ 0.026
125 | U21G A24U A33U | ≤ 0.026
126 | U21G A30U C83U | ≤ 0.026
127 | U21G A31C G85A | ≤ 0.026
128 | U21G A31G G67U | ≤ 0.026
129 | U21G A33U U57C U58A A89U | ≤ 0.026
130 | U21G A54G A62C U63A U71A C75U | ≤ 0.026
131 | U21G A60C | 0.0285
132 | U21G A60G A87C | ≤ 0.026
133 | U21G A60U G78C | ≤ 0.026
134 | U21G A62G | ≤ 0.026
135 | U21G A62G C64A | ≤ 0.026
136 | U21G A89G | 0.0399
137 | U21G C27G G86U | ≤ 0.026
138 | U21G C27U A54C C56U G66C | ≤ 0.026
139 | U21G C29G A33C | ≤ 0.026
140 | U21G C29U C56G | ≤ 0.026
141 | U21G C34U | ≤ 0.026
142 | U21G C64U A74U | ≤ 0.026
143 | U21G C68A | ≤ 0.026
144 | U21G C68A A74G C81A | ≤ 0.026

Row | Variant | nonsense suppression
145 | U21G C75A | 1.06
146 | U21G C75G | 1.05
147 | U21G C81A | ≤ 0.026
148 | U21G C83G | ≤ 0.026
149 | U21G C83U | 0.0839
150 | U21G G28A | 1.14
151 | U21G G28A A31G | 0.266
152 | U21G G28A G67C G84C | ≤ 0.026
153 | U21G G28C | 0.211
154 | U21G G28U C56G G65C | ≤ 0.026
155 | U21G G32A G61U | ≤ 0.026
156 | U21G G32U A89C | ≤ 0.026
157 | U21G G32U C56G G66U G85C | ≤ 0.026
158 | U21G G59A | ≤ 0.026
159 | U21G G61A U63G C75U A87U | ≤ 0.026
160 | U21G G61U U63G A89C | ≤ 0.026
161 | U21G G65A | 0.0483
162 | U21G G65A A74U | ≤ 0.026
163 | U21G G66C | ≤ 0.026
164 | U21G G73U | 0.026
165 | U21G G78U | 0.034
166 | U21G G88C | ≤ 0.026
167 | U21G U22C | 1.09
